# The other results are listed elsewhere or left out.
# Experiments:
# Assay in all cases: glycan array binding signal (z-score within array); higher = stronger binding
# Settings in all cases: glycan notation: IUPAC condensed, linker removed
# [1] = target: GlcNAc(b1-3)Gal(b1-3)GalNAc
# Procedure, shortened: (§1)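 Glycan array data came from 3228 arrays in the Consortium for Functional Glycomics database, and only arrays with an available protein sequence were kept. Glycan names were put into IUPAC-condensed notation, and columns mapping to the same glycan were averaged. The binding signal is a within-array Z-score, averaged across arrays of one protein sequence run at different concentrations or buffers and across linkers. A negative Z-score can be read as non-binding.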
# GlcNAc(b1-3)Gal(b1-4)Glc = target: GlcNAc(b1-3)Gal(b1-4)Glc
# Procedure, shortened: as §1
# [2] = target: GlcNAc(b1-3)Gal(b1-4)GlcNAc
# Procedure, shortened: as §1
# [3] = target: GlcNAc(b1-3)Gal(b1-4)GlcNAc(b1-3)Gal(b1-4)GlcNAc
# Procedure, shortened: as §1
# GlcNAc(b1-3)GalNAc = target: GlcNAc(b1-3)GalNAc
# Procedure, shortened: as §1
# GlcNAc(b1-3)Man = target: GlcNAc(b1-3)Man
# Procedure, shortened: as §1
# [4] = target: GlcNAc(b1-3)[GlcNAc(b1-4)][GlcNAc(b1-6)]GlcNAc
# Procedure, shortened: as §1
# [5] = target: GlcNAc(b1-3)[GlcNAc(b1-6)]Gal(b1-4)GlcNAc
# Procedure, shortened: as §1
# [6] = target: GlcNAc(b1-3)[GlcNAc(b1-6)]GalNAc
# Procedure, shortened: as §1
# [7] = target: GlcNAc(b1-4)Gal(b1-4)GlcNAc
# Procedure, shortened: as §1
# GlcNAc(b1-4)GlcNAc = target: GlcNAc(b1-4)GlcNAc
# Procedure, shortened: as §1
# [8] = target: GlcNAc(b1-4)GlcNAc(b1-4)GlcNAc
# Procedure, shortened: as §1
# [9] = target: GlcNAc(b1-4)GlcNAc(b1-4)GlcNAc(b1-4)GlcNAc(b1-4)GlcNAc
# Procedure, shortened: as §1
# [10] = target: GlcNAc(b1-4)GlcNAc(b1-4)GlcNAc(b1-4)GlcNAc(b1-4)GlcNAc(b1-4)GlcNAc
# Procedure, shortened: as §1
# [11] = target: GlcNAc(b1-4)[GlcNAc(b1-6)]GalNAc
# Procedure, shortened: as §1
# [12] = target: GlcNAc(b1-6)Gal(b1-4)GlcNAc
# Procedure, shortened: as §1
# GlcNAc(b1-6)GalNAc = target: GlcNAc(b1-6)GalNAc
# Procedure, shortened: as §1
# GlcNAc3Prop(b1-4)GlcNAc = target: GlcNAc3Prop(b1-4)GlcNAc
# Procedure, shortened: as §1
# [13] = target: GlcNAc6S(b1-3)Gal(b1-4)GlcNAc
# Procedure, shortened: as §1
# Kdn(a2-3)Gal(b1-3)GalNAc = target: Kdn(a2-3)Gal(b1-3)GalNAc
# Procedure, shortened: as §1
# Kdn(a2-3)Gal(b1-3)GlcNAc = target: Kdn(a2-3)Gal(b1-3)GlcNAc
# Procedure, shortened: as §1
# Kdn(a2-3)Gal(b1-4)Glc = target: Kdn(a2-3)Gal(b1-4)Glc
# Procedure, shortened: as §1
# Kdn(a2-3)Gal(b1-4)GlcNAc = target: Kdn(a2-3)Gal(b1-4)GlcNAc
# Procedure, shortened: as §1
# [14] = target: Kdn(a2-3)Gal(b1-4)[Fuc(a1-3)]GlcNAc
# Procedure, shortened: as §1
# Kdn(a2-6)Gal(b1-4)GlcNAc = target: Kdn(a2-6)Gal(b1-4)GlcNAc
# Procedure, shortened: as §1
# [15] = target: Man(a1-2)Man(a1-2)Man(a1-3)Man
# Procedure, shortened: as §1
# [16] = target: Man(a1-2)Man(a1-2)Man(a1-6)[Man(a1-3)]Man
# Procedure, shortened: as §1
# Man(a1-2)Man(a1-3)Man = target: Man(a1-2)Man(a1-3)Man
# Procedure, shortened: as §1
# [17] = target: Man(a1-2)Man(a1-3)[Man(a1-2)Man(a1-6)]Man
# Procedure, shortened: as §1
# [18] = target: Man(a1-2)Man(a1-3)[Man(a1-2)Man(a1-6)]Man(a1-6)[Man(a1-2)Man(a1-2)Man(a1-3)]Man
# Procedure, shortened: as §1
# [19] = target: Man(a1-2)Man(a1-3)[Man(a1-2)Man(a1-6)]Man(a1-6)[Man(a1-2)Man(a1-2)Man(a1-3)]Man(b1-4)GlcNAc(b1-4)GlcNAc
# Procedure, shortened: as §1
# [20] = target: Man(a1-2)Man(a1-3)[Man(a1-6)]Man(a1-6)[Man(a1-2)Man(a1-3)]Man(b1-4)GlcNAc(b1-4)GlcNAc
# Procedure, shortened: as §1
# [21] = target: Man(a1-2)Man(a1-6)[Man(a1-3)]Man(a1-6)[Man(a1-2)Man(a1-2)Man(a1-3)]Man
# Procedure, shortened: as §1
# [22] = target: Man(a1-2)Man(a1-6)[Man(a1-3)]Man(a1-6)[Man(a1-2)Man(a1-2)Man(a1-3)]Man(b1-4)GlcNAc(b1-4)GlcNAc
# Procedure, shortened: as §1
# Man(a1-3)[Man(a1-6)]Man = target: Man(a1-3)[Man(a1-6)]Man
# Procedure, shortened: as §1
# [23] = target: Man(a1-3)[Man(a1-6)]Man(a1-6)[Man(a1-2)Man(a1-3)]Man(b1-4)GlcNAc(b1-4)GlcNAc
# Procedure, shortened: as §1
# [24] = target: Man(a1-3)[Man(a1-6)]Man(a1-6)[Man(a1-3)]Man
# Procedure, shortened: as §1
# [25] = target: Man(a1-3)[Man(a1-6)]Man(a1-6)[Man(a1-3)]Man(b1-4)GlcNAc(b1-4)GlcNAc
# Procedure, shortened: as §1
# [26] = target: Man(a1-3)[Man(a1-6)]Man(b1-4)GlcNAc(b1-4)GlcNAc
# Procedure, shortened: as §1
# Man(a1-6)Man = target: Man(a1-6)Man
# Procedure, shortened: as §1
# Man(b1-4)GlcNAc = target: Man(b1-4)GlcNAc
# Procedure, shortened: as §1
# Neu5Ac(a2-3)Gal = target: Neu5Ac(a2-3)Gal
# Procedure, shortened: as §1
# [27] = target: Neu5Ac(a2-3)Gal(b1-3)GalNAc
# Procedure, shortened: as §1
# [28] = target: Neu5Ac(a2-3)Gal(b1-3)GalNAc(b1-3)Gal(a1-4)Gal(b1-4)Glc
# Procedure, shortened: as §1
# [29] = target: Neu5Ac(a2-3)Gal(b1-3)GalNAc(b1-4)[Neu5Ac(a2-3)]Gal(b1-4)Glc
# Procedure, shortened: as §1
binder,measurement,setting,value
Tectonin 2 (Laccaria bicolor) (protein) MPWKGISGSLSRISAGSVTNVWGVNAANNIYRYTGDDAKPWVQIPGALTDIGAAADGTVWGVNAAGNIYRYVWDSNHWTQIKGALKRISAGSRTNVWGVNAGGAIYRYTGDDANPWVQIPGVLSDIGAGADGTVWGVNAAGEIYRYTGDQGDPNHWVKIPGALSAISAGIKTNVWGVNSANNIYTSTGDDKNPWLGIGGSLVDIGAGTDGVVWGVNAGGGIYRWIRD,glycan array binding signal (z-score),[1],-0.024
same,glycan array binding signal (z-score),GlcNAc(b1-3)Gal(b1-4)Glc,-0.406
same,glycan array binding signal (z-score),[2],-0.274
same,glycan array binding signal (z-score),[3],-0.22
same,glycan array binding signal (z-score),GlcNAc(b1-3)GalNAc,-0.388
same,glycan array binding signal (z-score),GlcNAc(b1-3)Man,-0.371
same,glycan array binding signal (z-score),[4],-0.295
same,glycan array binding signal (z-score),[5],-0.541
same,glycan array binding signal (z-score),[6],-0.21
same,glycan array binding signal (z-score),[7],0.024
same,glycan array binding signal (z-score),GlcNAc(b1-4)GlcNAc,-0.347
same,glycan array binding signal (z-score),[8],0.852
same,glycan array binding signal (z-score),[9],-0.334
same,glycan array binding signal (z-score),[10],-0.339
same,glycan array binding signal (z-score),[11],-0.451
same,glycan array binding signal (z-score),[12],-0.233
same,glycan array binding signal (z-score),GlcNAc(b1-6)GalNAc,-0.376
same,glycan array binding signal (z-score),GlcNAc3Prop(b1-4)GlcNAc,-0.156
same,glycan array binding signal (z-score),[13],0.191
same,glycan array binding signal (z-score),Kdn(a2-3)Gal(b1-3)GalNAc,-0.039
same,glycan array binding signal (z-score),Kdn(a2-3)Gal(b1-3)GlcNAc,0.042
same,glycan array binding signal (z-score),Kdn(a2-3)Gal(b1-4)Glc,-0.381
same,glycan array binding signal (z-score),Kdn(a2-3)Gal(b1-4)GlcNAc,-0.032
same,glycan array binding signal (z-score),[14],-0.338
same,glycan array binding signal (z-score),Kdn(a2-6)Gal(b1-4)GlcNAc,-0.239
same,glycan array binding signal (z-score),[15],-0.316
same,glycan array binding signal (z-score),[16],-0.42
same,glycan array binding signal (z-score),Man(a1-2)Man(a1-3)Man,-0.183
same,glycan array binding signal (z-score),[17],-0.408
same,glycan array binding signal (z-score),[18],-0.281
same,glycan array binding signal (z-score),[19],-0.318
same,glycan array binding signal (z-score),[20],-0.36
same,glycan array binding signal (z-score),[21],-0.264
same,glycan array binding signal (z-score),[22],0.033
same,glycan array binding signal (z-score),Man(a1-3)[Man(a1-6)]Man,-0.426
same,glycan array binding signal (z-score),[23],-0.408
same,glycan array binding signal (z-score),[24],-0.201
same,glycan array binding signal (z-score),[25],-0.297
same,glycan array binding signal (z-score),[26],-0.28
same,glycan array binding signal (z-score),Man(a1-6)Man,-0.438
same,glycan array binding signal (z-score),Man(b1-4)GlcNAc,-0.679
same,glycan array binding signal (z-score),Neu5Ac(a2-3)Gal,-0.237
same,glycan array binding signal (z-score),[27],-0.204
same,glycan array binding signal (z-score),[28],0.073
same,glycan array binding signal (z-score),[29],2.34
